Some entries share one result that the patent states for a list of compounds.
test system: IKZF1/3; experiment: Western blotting assay of IKZF1 and IKZF3 degradation in MM.1S cells; type: cell-based; conditions: 16 h, western blot, FIG. 2

SMILES	concentration below which significant IKZF1/3 degradation effects were shown
CN(CCCCCCCSc1cccc2c1CN(C1CCC(=O)NC1=O)C2=O)C12CC3CC(CC(C3)C1)C2 (stereo not shown) [SIAIS1221031, 3-(4-((7-((adamantan-1-yl)(methyl)amino)heptyl)thio)-1-oxoisoindolin-2-yl)piperidine-2,6-dione]	below 0.05 nM
O=C1CCC(N2Cc3c(SCCCCCCCNC45CC6CC(CC(C6)C4)C5)cccc3C2=O)C(=O)N1 (stereo not shown) [SIAIS1220155, 3-(4-((7-((adamantan-1-yl)amino)heptyl)thio)-1-oxoisoindolin-2-yl)piperidine-2,6-dione]	below 0.05 nM
O=C1CCC(N2Cc3c(SCCc4ccc(CCNC56CC7CC(CC(C7)C5)C6)cc4)cccc3C2=O)C(=O)N1 (stereo not shown) [SIAIS1224121, 3-(4-((4-(2-((adamantan-1-yl)amino)ethyl)phenethyl)thio)-1-oxoisoindolin-2-yl)piperidine-2,6-dione]	below 1 nM
O=C1CCC(N2Cc3c(SCc4ccc(CNC5CC6(CCC6)C5)cc4)cccc3C2=O)C(=O)N1 (stereo not shown) [SIAIS1222159, 3-(1-oxo-4-((4-((spiro[3.3]heptan-2-ylamino)methyl)benzyl)thio)isoindolin-2-yl)piperidine-2,6-dione]	below 0.1 nM
O=C1CCC(N2Cc3c(SCc4ccc(CNCC56CC7CC(CC(C7)C5)C6)cc4)cccc3C2=O)C(=O)N1 (stereo not shown) [SIAIS1222085, 3-(4-((4-(((adamantan-1-ylmethyl)amino)methyl)benzyl)thio)-1-oxoisoindolin-2-yl)piperidine-2,6-dione]	below 0.1 nM
O=C1CCC(N2Cc3c(SCCCCCCC(=O)NC45CC6CC(CC(C6)C4)C5)cccc3C2=O)C(=O)N1 (stereo not shown) [SIAIS1220195, N-(adamantan-1-yl)-7-((2-(2,6-dioxopiperidin-3-yl)-1-oxoisoindolin-4-yl)thio)heptanamide]	below 0.1 nM
O=C1CCC(N2Cc3c(SCCCCCCCN4CCCCCCC4)cccc3C2=O)C(=O)N1 (stereo not shown) [SIAIS1220193, 3-(4-((7-(azocan-1-yl)heptyl)thio)-1-oxoisoindolin-2-yl)piperidine-2,6-dione]	below 0.1 nM
O=C1CCC(N2Cc3c(SCc4ccc(CN5CCCCC5)cc4)cccc3C2=O)C(=O)N1 (stereo not shown) [SIAIS1220165, 3-(1-oxo-4-((4-(piperidin-1-ylmethyl)benzyl)thio)isoindolin-2-yl)piperidine-2,6-dione]	below 0.05 nM
CCN(CC)CCCCCCCSc1cccc2c1CN(C1CCC(=O)NC1=O)C2=O (stereo not shown) [SIAIS1220033, 3-(4-((7-(diethylamino)heptyl)thio)-1-oxoisoindolin-2-yl)piperidine-2,6-dione]	below 0.05 nM
O=C1CCC(N2Cc3c(SCc4ccc(CCN5CCCCC5)cc4)cccc3C2=O)C(=O)N1 (stereo not shown) [SIAIS1224153, 3-(1-oxo-4-((4-(2-(piperidin-1-yl)ethyl)benzyl)thio)isoindolin-2-yl)piperidine-2,6-dione]	below 0.1 nM
O=C1CCC(N2Cc3c(SCc4ccc(CNC56CC7CC(CC(C7)C5)C6)cc4)cccc3C2=O)C(=O)N1 (stereo not shown) [SIAIS1221003, 3-(4-((4-(((adamantan-1-yl)amino)methyl)benzyl)thio)-1-oxoisoindolin-2-yl)piperidine-2,6-dione]	below 0.1 nM
O=C1CCC(N2Cc3c(SCc4ccc(CCCN5CCCCC5)cc4)cccc3C2=O)C(=O)N1 (stereo not shown) [SIAIS1227043, 3-(1-oxo-4-((4-(3-(piperidin-1-yl)propyl)benzyl)thio)isoindolin-2-yl)piperidine-2,6-dione]	below 0.1 nM
O=C1CCC(N2Cc3c(SCCCCCCCCN4CCCCC4)cccc3C2=O)C(=O)N1 (stereo not shown) [SIAIS1220009, 3-(1-oxo-4-((8-(piperidin-1-yl)octyl)thio)isoindolin-2-yl)piperidine-2,6-dione]	below 1 nM
O=C1CCC(N2Cc3c(SCCCCCCCNC4CC5(CCC5)C4)cccc3C2=O)C(=O)N1 (stereo not shown) [SIAIS1222077, 3-(1-oxo-4-((7-(spiro[3.3]heptan-2-ylamino)heptyl)thio)isoindolin-2-yl)piperidine-2,6-dione]	below 0.1 nM
O=C1CCC(N2C(=O)c3cccc(SCCCCCCCNC45CC6CC(CC(C6)C4)C5)c3C2=O)C(=O)N1 (stereo not shown) [SIAIS1221069, 4-((7-((adamantan-1-yl)amino)heptyl)thio)-2-(2,6-dioxopiperidin-3-yl)isoindoline-1,3-dione]	below 0.05 nM
CC1(C)[C@@H]2CC[C@@]1(C)[C@@H](NCCCCCCCSc1cccc3c1CN(C1CCC(=O)NC1=O)C3=O)C2 (stereo partly drawn) [SIAIS1221019, 3-(1-oxo-4-((7-(((1R,2S,4R)-1,7,7-trimethylbicyclo[2.2.1]heptan-2-yl)amino)heptyl)thio)isoindolin-2-yl)piperidine-2,6-dione]	below 0.1 nM
O=C1CCC(N2Cc3c(SCc4ccc(CNC56CC(C5)C6)cc4)cccc3C2=O)C(=O)N1 (stereo not shown) [SIAIS1222161, 3-(4-((4-((bicyclo[1.1.1]pentan-1-ylamino)methyl)benzyl)thio)-1-oxoisoindolin-2-yl)piperidine-2,6-dione]	below 1 nM
CC1(C)[C@@H]2CC[C@@]1(C)[C@@H](NCc1ccc(CSc3cccc4c3CN(C3CCC(=O)NC3=O)C4=O)cc1)C2 (stereo partly drawn) [SIAIS1221073, 3-(1-oxo-4-((4-((((1R,2S,4R)-1,7,7-trimethylbicyclo[2.2.1]heptan-2-yl)amino)methyl)benzyl)thio)isoindolin-2-yl)piperidine-2,6-dione]	below 0.05 nM
O=C1CCC(N2Cc3c(SCCCCCCCNC45CC(C4)C5)cccc3C2=O)C(=O)N1 (stereo not shown) [SIAIS1222123, 3-(4-((7-(bicyclo[1.1.1]pentan-1-ylamino)heptyl)thio)-1-oxoisoindolin-2-yl)piperidine-2,6-dione]	below 0.1 nM
O=C1CCC(N2Cc3c(SCCc4ccc(CNC56CC7CC(CC(C7)C5)C6)cc4)cccc3C2=O)C(=O)N1 (stereo not shown) [SIAIS1224149, 3-(4-((4-(((adamantan-1-yl)amino)methyl)phenethyl)thio)-1-oxoisoindolin-2-yl)piperidine-2,6-dione]	below 0.1 nM
O=C1CCC(N2Cc3c(SCCCCCCCNC4CCCCC4)cccc3C2=O)C(=O)N1 (stereo not shown) [SIAIS1220185, 3-(4-((7-(cyclohexylamino)heptyl)thio)-1-oxoisoindolin-2-yl)piperidine-2,6-dione]	below 0.1 nM
O=C1CCC(N2Cc3c(SCc4ccc(CCNC5CCCCC5)cc4)cccc3C2=O)C(=O)N1 (stereo not shown) [SIAIS1224155, 3-(4-((4-(2-(cyclohexylamino)ethyl)benzyl)thio)-1-oxoisoindolin-2-yl)piperidine-2,6-dione]	below 0.05 nM
O=C1CCC(N2Cc3c(SCCCCCCCN4CCC5(CCCCC5)CC4)cccc3C2=O)C(=O)N1 (stereo not shown) [SIAIS1221015, 3-(4-((7-(3-azaspiro[5.5]undecan-3-yl)heptyl)thio)-1-oxoisoindolin-2-yl)piperidine-2,6-dione]	below 0.1 nM
O=C1CCC(N2Cc3c(SCCCCCCNCC45CC6CC(CC(C6)C4)C5)cccc3C2=O)C(=O)N1 (stereo not shown) [SIAIS1221013, 3-(4-((6-((adamantan-1-ylmethyl)amino)hexyl)thio)-1-oxoisoindolin-2-yl)piperidine-2,6-dione]	below 0.1 nM
O=C1CCC(N2Cc3c(SCc4ccc(CNCC5CCCCC5)cc4)cccc3C2=O)C(=O)N1 (stereo not shown) [SIAIS1222187, 3-(4-((4-(((cyclohexylmethyl)amino)methyl)benzyl)thio)-1-oxoisoindolin-2-yl)piperidine-2,6-dione]	below 1 nM
O=C1CCC(N2Cc3c(SCc4ccc(CN(C5CCCCC5)C5CCCCC5)cc4)cccc3C2=O)C(=O)N1 (stereo not shown) [SIAIS1227059, 3-(4-((4-((dicyclohexylamino)methyl)benzyl)thio)-1-oxoisoindolin-2-yl)piperidine-2,6-dione]	below 0.1 nM
O=C1CCC(N2Cc3c(SCCCc4ccc(CNC56CC7CC(CC(C7)C5)C6)cc4)cccc3C2=O)C(=O)N1 (stereo not shown) [SIAIS1227037, 3-(4-((3-(4-(((adamantan-1-yl)amino)methyl)phenyl)propyl)thio)-1-oxoisoindolin-2-yl)piperidine-2,6-dione]	below 0.1 nM
O=C1CCC(N2Cc3c(SCc4ccc(CCNC56CC7CC(CC(C7)C5)C6)cc4)cccc3C2=O)C(=O)N1 (stereo not shown) [SIAIS287128, 3-(4-((4-(2-(adamantan-1-ylamino)ethyl)benzyl)thio)-1-oxoisoindolin-2-yl)piperidine-2,6-dione]	below 0.05 nM

From US12582641B2, “Sulfur-containing compound based on glutarimide skeleton and application thereof” (SHANGHAITECH UNIVERSITY, priority 2019, dated 2026)
